Experimental findings from publication PMC4081100 are described below.

The entries are a selection whose mix differs from that of the whole data set. For part of these data: At the low end of the ranking the order means little. This is one part of the list. For part of these data: The source does not settle which construct or isoform was used.

Experiment in all cases: universal protein binding microarray (PBM)
Conditions in all cases: transcription factors of Arabidopsis thaliana; high values mean tight binding; most listed sequences are background and not binding sites; double strand, one strand shown

One experiment concerns the target T1, GST-ANAC092(1-176) (UniProt Q9FKA0).
T1 sequence: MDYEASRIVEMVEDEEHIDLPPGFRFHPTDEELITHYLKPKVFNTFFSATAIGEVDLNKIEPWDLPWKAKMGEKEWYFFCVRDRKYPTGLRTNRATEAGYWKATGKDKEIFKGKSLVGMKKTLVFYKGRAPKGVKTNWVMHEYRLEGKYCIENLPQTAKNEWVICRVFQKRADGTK

For the next experiment, the target named is GST-NTL6(1-168) (UniProt Q9SCK6).
Chain of UniProt Q9SCK6 (Q9SCK6 1-168): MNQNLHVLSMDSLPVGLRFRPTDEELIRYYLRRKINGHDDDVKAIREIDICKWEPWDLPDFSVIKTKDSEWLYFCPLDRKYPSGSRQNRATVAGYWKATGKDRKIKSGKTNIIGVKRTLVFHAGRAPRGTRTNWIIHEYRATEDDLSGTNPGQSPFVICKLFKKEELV
A further experiment concerns the target T2, GST-ANAC019 NAC domain (UniProt Q9C932).
T2 sequence: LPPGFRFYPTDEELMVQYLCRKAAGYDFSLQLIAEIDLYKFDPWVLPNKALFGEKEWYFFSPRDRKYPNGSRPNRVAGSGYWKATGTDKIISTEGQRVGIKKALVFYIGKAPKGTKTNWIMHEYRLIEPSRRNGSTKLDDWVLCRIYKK

In a further experiment the target is T3, GST-ANAC055(1-171) (UniProt Q9LDY8).
T3 sequence: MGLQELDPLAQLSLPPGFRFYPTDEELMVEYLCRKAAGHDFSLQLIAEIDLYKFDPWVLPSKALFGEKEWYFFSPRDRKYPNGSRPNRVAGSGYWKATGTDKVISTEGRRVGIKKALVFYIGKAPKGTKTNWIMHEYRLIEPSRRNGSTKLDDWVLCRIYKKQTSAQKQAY

Another experiment deals with T4, GST-ATAF1 NAC domain (UniProt Q39013).
T4 sequence: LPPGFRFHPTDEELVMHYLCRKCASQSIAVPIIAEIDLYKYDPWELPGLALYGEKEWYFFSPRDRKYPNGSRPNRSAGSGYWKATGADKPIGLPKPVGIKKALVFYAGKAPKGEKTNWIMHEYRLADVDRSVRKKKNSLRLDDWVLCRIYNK

In experiment [1] the target is T5, GST-ANAC092(1-285) full length (UniProt Q9FKA0).
T5 sequence: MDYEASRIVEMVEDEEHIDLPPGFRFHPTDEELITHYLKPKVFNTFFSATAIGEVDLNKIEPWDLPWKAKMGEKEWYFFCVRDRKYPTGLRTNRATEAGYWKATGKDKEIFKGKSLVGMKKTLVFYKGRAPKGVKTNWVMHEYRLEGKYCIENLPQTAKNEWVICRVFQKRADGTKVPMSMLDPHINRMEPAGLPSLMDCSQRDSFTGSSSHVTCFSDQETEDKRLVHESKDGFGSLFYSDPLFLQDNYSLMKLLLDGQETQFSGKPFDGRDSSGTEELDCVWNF

A further experiment addresses T6, GST-NAP(1-166) (UniProt O49255).
T6 sequence: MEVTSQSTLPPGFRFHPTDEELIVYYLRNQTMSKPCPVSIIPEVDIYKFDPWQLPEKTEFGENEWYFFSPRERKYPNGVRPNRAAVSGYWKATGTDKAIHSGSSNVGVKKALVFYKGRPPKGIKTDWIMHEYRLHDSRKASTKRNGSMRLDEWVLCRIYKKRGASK

The next experiment concerns the target T7, GST-NST2(1-184) (UniProt Q9M274).
T7 sequence: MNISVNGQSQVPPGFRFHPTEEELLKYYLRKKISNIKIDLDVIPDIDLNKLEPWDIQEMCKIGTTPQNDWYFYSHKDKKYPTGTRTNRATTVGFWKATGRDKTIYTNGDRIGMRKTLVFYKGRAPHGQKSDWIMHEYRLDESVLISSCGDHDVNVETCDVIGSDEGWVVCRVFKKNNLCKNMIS

The target of another experiment is T8, GST-NTL8 NAC domain (UniProt Q9XIN7).
T8 sequence: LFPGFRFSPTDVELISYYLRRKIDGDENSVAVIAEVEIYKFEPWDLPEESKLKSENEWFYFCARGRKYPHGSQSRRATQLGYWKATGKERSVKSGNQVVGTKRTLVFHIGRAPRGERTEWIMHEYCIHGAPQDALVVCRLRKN

A further experiment addresses T9, GST-SND1(1-203) (UniProt Q9LPI7).
T9 sequence: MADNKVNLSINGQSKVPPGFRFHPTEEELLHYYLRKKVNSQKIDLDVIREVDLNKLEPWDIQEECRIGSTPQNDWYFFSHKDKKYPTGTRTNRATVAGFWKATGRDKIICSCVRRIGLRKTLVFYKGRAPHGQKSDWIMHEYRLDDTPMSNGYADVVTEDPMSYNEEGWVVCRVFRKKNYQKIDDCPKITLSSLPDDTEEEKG

Another experiment concerns the target T10, GST-VND3 NAC domain (UniProt Q9FH59).
T10 sequence: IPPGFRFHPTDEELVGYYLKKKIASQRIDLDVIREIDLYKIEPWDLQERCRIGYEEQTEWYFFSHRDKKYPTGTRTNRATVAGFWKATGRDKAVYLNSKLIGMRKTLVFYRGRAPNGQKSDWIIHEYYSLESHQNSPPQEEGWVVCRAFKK

For another experiment, the target named is T11, GST-VND7 NAC domain (UniProt Q9C8W9).
T11 sequence: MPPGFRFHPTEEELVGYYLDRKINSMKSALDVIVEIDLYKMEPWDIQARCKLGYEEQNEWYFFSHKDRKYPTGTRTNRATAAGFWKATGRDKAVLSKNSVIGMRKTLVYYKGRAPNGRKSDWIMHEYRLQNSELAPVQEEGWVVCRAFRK

Experiment [2] has as its target T12, GST-VOZ2 (Arabidopsis thaliana) (UniProt Q9SLB9).
T12 sequence: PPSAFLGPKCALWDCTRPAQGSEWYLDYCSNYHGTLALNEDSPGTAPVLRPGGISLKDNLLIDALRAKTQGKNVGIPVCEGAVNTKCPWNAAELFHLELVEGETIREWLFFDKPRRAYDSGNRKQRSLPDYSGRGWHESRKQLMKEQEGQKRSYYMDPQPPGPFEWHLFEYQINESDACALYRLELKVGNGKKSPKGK

A further experiment has as its target GST-WRKY1(266-371) (UniProt Q9SI37).

Chain of GST-WRKY1(266-371) (Q9SI37 266-371, chain 1 of 2): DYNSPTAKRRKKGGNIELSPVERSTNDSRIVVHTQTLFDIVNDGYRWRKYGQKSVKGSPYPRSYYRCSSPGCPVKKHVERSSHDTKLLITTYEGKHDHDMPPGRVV

As to ACTCTGAC, the binding signal with GST-ANAC092(1-176) is -0.119 E-score; with GST-NTL6(1-168), -0.114 E-score; in the experiment with GST-ANAC019 NAC domain, 0.0465 E-score; with GST-ANAC055(1-171), -0.145 E-score; in the experiment with GST-ATAF1 NAC domain it was -0.128 E-score; in experiment [1], -0.141 E-score. The binding signal is 0.00092 E-score with GST-NAP(1-166); -0.125 E-score with GST-NST2(1-184); -0.0228 E-score in the experiment with GST-NTL8 NAC domain; -0.111 E-score with GST-SND1(1-203); -0.0893 E-score in the experiment with GST-VND3 NAC domain; -0.0942 E-score with GST-VND7 NAC domain. Moreover, the binding signal in experiment [2] is -0.109 E-score; in the experiment with GST-WRKY1(266-371), 0.437 E-score.

Consider AGTCAGAG, for which the binding signal was -0.0419 E-score in the experiment with GST-ANAC092(1-176); -0.0523 E-score with GST-NTL6(1-168); -0.0563 E-score with GST-ANAC019 NAC domain; -0.186 E-score with GST-ANAC055(1-171); -0.101 E-score in the experiment with GST-ATAF1 NAC domain; -0.0165 E-score in [1]. Further, the binding signal with GST-NAP(1-166) was -0.0701 E-score; in the experiment with GST-NST2(1-184), -0.0999 E-score; in the experiment with GST-NTL8 NAC domain it was -0.0329 E-score; with GST-SND1(1-203) it was -0.00899 E-score; with GST-VND3 NAC domain, -0.126 E-score; in the experiment with GST-VND7 NAC domain, -0.106 E-score. In addition, the results for the binding signal (in experiment [2]; with GST-WRKY1(266-371)) were -0.121 E-score and 0.44 E-score, respectively.

On to GGTCAACA, for which the binding signal was 0.0365 E-score with GST-ANAC092(1-176); -0.0553 E-score with GST-NTL6(1-168); -0.107 E-score with GST-ANAC019 NAC domain; -0.0249 E-score in the experiment with GST-ANAC055(1-171); 0.0175 E-score with GST-ATAF1 NAC domain; 0.00353 E-score in experiment [1]. Further, the binding signal with GST-NAP(1-166) is -0.0432 E-score; in the experiment with GST-NST2(1-184), 0.0705 E-score; with GST-NTL8 NAC domain it was -0.118 E-score; with GST-SND1(1-203), -0.03 E-score; in the experiment with GST-VND3 NAC domain it was -0.102 E-score; with GST-VND7 NAC domain, -0.139 E-score. For the same sequence, the binding signal is 0.019 E-score in experiment [2] and 0.493 E-score with GST-WRKY1(266-371).

CGTGGACC: the binding signal with GST-ANAC092(1-176) is -0.117 E-score; in the experiment with GST-NTL6(1-168), -0.141 E-score; with GST-ANAC019 NAC domain, -0.00836 E-score; in the experiment with GST-ANAC055(1-171) it was -0.0776 E-score; with GST-ATAF1 NAC domain it was -0.101 E-score; in [1] it was -0.0185 E-score. Further, the binding signal is -0.0504 E-score in the experiment with GST-NAP(1-166); -0.153 E-score with GST-NST2(1-184); -0.0778 E-score in the experiment with GST-NTL8 NAC domain; -0.0437 E-score in the experiment with GST-SND1(1-203); -0.0757 E-score in the experiment with GST-VND3 NAC domain; -0.051 E-score with GST-VND7 NAC domain. Besides, the binding signal in experiment [2] stood at 0.0159 E-score; in the experiment with GST-WRKY1(266-371) it was 0.444 E-score.

Take GCCTTGAC: the binding signal was -0.0111 E-score in the experiment with GST-ANAC092(1-176); -0.138 E-score with GST-NTL6(1-168); 0.0054 E-score with GST-ANAC019 NAC domain; -0.103 E-score with GST-ANAC055(1-171); -0.121 E-score with GST-ATAF1 NAC domain; -0.0429 E-score in [1]. Besides, the binding signal with GST-NAP(1-166) is -0.163 E-score; with GST-NST2(1-184), -0.0948 E-score; with GST-NTL8 NAC domain, -0.0469 E-score; with GST-SND1(1-203), -0.0649 E-score; with GST-VND3 NAC domain it was -0.117 E-score; in the experiment with GST-VND7 NAC domain, -0.102 E-score. The binding signal in [2] was -0.106 E-score; with GST-WRKY1(266-371), 0.457 E-score.

As to CGAAGACC, the binding signal is -0.0859 E-score with GST-ANAC092(1-176); -0.0747 E-score with GST-NTL6(1-168); 0.0286 E-score with GST-ANAC019 NAC domain; -0.183 E-score with GST-ANAC055(1-171); -0.177 E-score with GST-ATAF1 NAC domain; -0.13 E-score in experiment [1]. The binding signal with GST-NAP(1-166) was -0.0937 E-score; with GST-NST2(1-184), -0.16 E-score; with GST-NTL8 NAC domain it was 0.0247 E-score; in the experiment with GST-SND1(1-203) it was -0.143 E-score; in the experiment with GST-VND3 NAC domain, -0.145 E-score; with GST-VND7 NAC domain, -0.0605 E-score. Besides, the binding signal in experiment [2] worked out at 0.00257 E-score; in the experiment with GST-WRKY1(266-371), 0.436 E-score.
